Experimental data from article PMC4450054.
No constants are given. Whether binding was seen depends on the method and setting. In cells and extracts the contact can be indirect. Some results given as binding are weak or reduced against the parent protein; the word gives no strength.

Experiments:
Test in all cases: split reporter; BiFC in agroinfiltrated Nicotiana benthamiana leaf cells; one protein fused to YFPct, the other to YFPnt; fluorescence seen 72 h after inoculation; reciprocal assays gave the same results; YFPct construct with empty YFPnt gave no signal
[1] = target: T1, PEPPER (PEP) (Arabidopsis thaliana) (UniProt Q9SZH4)
T1 sequence: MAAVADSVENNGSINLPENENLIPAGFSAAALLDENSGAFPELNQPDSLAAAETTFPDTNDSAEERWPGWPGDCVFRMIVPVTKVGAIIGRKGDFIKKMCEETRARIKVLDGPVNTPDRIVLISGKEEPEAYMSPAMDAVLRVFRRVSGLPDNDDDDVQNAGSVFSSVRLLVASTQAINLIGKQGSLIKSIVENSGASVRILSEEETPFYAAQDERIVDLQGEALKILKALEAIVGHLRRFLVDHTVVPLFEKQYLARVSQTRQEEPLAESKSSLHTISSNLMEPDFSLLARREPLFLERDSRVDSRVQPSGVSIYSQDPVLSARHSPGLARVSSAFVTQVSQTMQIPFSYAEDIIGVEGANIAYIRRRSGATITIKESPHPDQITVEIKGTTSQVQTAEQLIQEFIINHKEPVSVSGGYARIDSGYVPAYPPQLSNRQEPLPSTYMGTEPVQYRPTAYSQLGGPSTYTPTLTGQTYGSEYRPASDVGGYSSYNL

[2] = target: T2, HUA1 (Arabidopsis thaliana) (UniProt Q941Q3)
T2 sequence: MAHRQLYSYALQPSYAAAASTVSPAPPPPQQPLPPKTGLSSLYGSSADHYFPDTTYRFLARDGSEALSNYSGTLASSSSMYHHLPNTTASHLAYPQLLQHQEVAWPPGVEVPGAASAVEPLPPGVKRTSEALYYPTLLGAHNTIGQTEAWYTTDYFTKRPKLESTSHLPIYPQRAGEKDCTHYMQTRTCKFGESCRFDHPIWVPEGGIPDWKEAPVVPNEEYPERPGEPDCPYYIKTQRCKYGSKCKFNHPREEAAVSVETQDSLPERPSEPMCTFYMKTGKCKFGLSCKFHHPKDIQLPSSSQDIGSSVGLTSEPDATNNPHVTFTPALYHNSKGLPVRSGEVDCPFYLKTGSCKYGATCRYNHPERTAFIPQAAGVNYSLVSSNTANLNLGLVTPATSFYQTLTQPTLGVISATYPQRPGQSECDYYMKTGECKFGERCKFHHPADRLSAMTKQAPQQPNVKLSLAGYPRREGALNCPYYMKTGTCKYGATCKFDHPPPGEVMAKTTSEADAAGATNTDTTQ

[3] = target: T3, HUA ENHANCER 4 (HEN4) (Arabidopsis thaliana) (UniProt F4KDN0)
T3 sequence: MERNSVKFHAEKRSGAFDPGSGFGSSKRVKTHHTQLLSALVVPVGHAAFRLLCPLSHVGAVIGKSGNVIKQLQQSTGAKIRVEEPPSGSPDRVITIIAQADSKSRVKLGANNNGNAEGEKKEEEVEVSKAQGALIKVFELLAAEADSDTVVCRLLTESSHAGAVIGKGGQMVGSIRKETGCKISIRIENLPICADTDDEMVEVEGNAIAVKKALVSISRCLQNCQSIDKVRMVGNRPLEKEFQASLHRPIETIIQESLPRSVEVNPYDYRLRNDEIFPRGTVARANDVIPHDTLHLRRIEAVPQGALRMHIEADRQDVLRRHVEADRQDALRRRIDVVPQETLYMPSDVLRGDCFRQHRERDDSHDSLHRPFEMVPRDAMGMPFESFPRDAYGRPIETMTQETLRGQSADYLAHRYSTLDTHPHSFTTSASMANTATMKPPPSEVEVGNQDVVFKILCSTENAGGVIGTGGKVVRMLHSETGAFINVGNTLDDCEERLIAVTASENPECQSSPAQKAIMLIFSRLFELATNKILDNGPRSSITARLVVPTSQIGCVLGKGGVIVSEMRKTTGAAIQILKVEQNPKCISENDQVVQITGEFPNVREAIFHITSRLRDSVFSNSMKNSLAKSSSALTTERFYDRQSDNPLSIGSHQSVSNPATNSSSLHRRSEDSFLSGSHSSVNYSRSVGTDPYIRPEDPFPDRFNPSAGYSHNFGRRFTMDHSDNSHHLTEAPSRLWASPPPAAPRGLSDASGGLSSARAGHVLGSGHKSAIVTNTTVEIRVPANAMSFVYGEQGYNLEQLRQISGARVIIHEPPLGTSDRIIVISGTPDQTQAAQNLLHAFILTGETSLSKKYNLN

[4] = target: FLOWERING LOCUS WITH KH DOMAINS (FLK) (Arabidopsis thaliana) (UniProt Q9SR13)

binding [1]: binds | binding [2]: binds | binding [3]: binds | binding [4]: binds
B1: FLOWERING LOCUS WITH KH DOMAINS (FLK) (protein, UniProt Q9SR13 1-577)
chain: MAEAEDQQNFVAHNGDQVPDQGSDELHNGLPYQVHDETLVHQPYEVEDPILEPQQYEVPDPTLEPQQYEVPDQTLEPQQYEVDDQLEYHQYQLQDQANEDVQDHSQDDLQYQPQNQEQFQLQDEAHDQAQYQAQGDVQDHNGDEVQDKVEDEEGIPEHLESLQKSEPEEDATVGGEEKRWPGWPGETVFRMLVPAQKVGSIIGRKGDVIKKIVEETRARIKILDGPPGTTERAVMVSGKEEPESSLPPSMDGLLRVHMRIVDGLDGEASQAPPPSKVSTRLLVPASQAGSLIGKQGGTVKAIQEASACIVRVLGSEDLPVFALQDDRVVEVVGEPTSVHRALELIASHLRKFLVDRSIIPFFENQMQKPTRQMDHMPPPHQSWGPPQGHAPSVGGGGYGHNPPPYMQPPPRHDSYYPPPEMRQPPMEKQPHQGISAYGREPPMNVHVSSAPPMVAQQVTQQMQIPLSYADAVIGTSGSNISYTRRLSGATVTIQETRGVPGEMTVEVSGTGSQVQTAVQLIQNFMAEAGAPAPAQPQTVAPEQQGYNPYATHGSVYAAAPTNPPGGYATDYSSGYGY
